# PubChem BioAssay AID463173 (ICCB-Longwood Screening Facility, Harvard Medical School, 2010)
# Out of some 52,000 compounds screened, about 1,700 (3.3%) were called active. No stated cut-off is given here; in the data, active means survival mostly below about 52% (no sharp cut-off); inactive means mostly above about 56%. The list shows a part of the results.
# Test system: Wild type
# Assay: S. aureus survival, RN4220 and DeltatarO strains – OD600, teichoic acid synthesis inhibitors, primary screen (AID 463173)
# Details: S. aureus RN4220 wild type/DeltatarO growth, OD600, 18 h, hits give low values, screened at 18.75 µg/mL (by protocol)
row,Compound,survival
1,Cn1c(=O)c(=O)n(C)c2cc(N3CCOCC3)c(NS(=O)(=O)c3ccc(F)c(Cl)c3)cc21,inactive: 63%
2,Cc1ccc(-c2nnc3ccccc3c2C(=O)Nc2cccc(Cl)c2)cc1,inactive: 153%
3,COc1ccc(NC(=O)c2cc3cc(C)ccc3n2C)cc1,inactive: 86%
4,N#C/C(C(=O)c1ccccc1)=C1/Nc2ccccc2C1=O,inactive: 102%
5,CC(C)(C)OC(=O)N1CCC(c2c(C(=O)NCc3ccc4c(c3)OCO4)cnn2-c2ccccc2Cl)CC1,inactive: 75%
6,O=C(O)CCCNc1ncnc2ccccc12,inactive: 91%
7,COc1ccc(C(=O)Nc2nnc(S(=O)(=O)N(CC(C)C)c3ccccc3)s2)cc1,inactive: 86%
8,O=C(O)CCOc1ccc2c(c1)OCCO2,inactive: 110%
9,Cc1ccc(Cl)cc1NC(=O)c1ccc2snnc2c1,inactive: 119%
10,COc1cc(NC(=O)NCCn2nnc3cc(S(=O)(=O)N(C)C)ccc32)cc(OC)c1,inactive: 57%
11,COc1ccc(NC(=O)c2ccc3c(c2)nnn3C2CCCC2)cc1Cl,inactive: 85%
12,Cc1ccc(Cn2c(C(=O)O)c(CNCc3cccs3)c3ccc(C)cc32)cc1,inactive: 63%
13,CC1=C(C(N)=O)C(c2ccc(F)cc2)n2nc(-c3ccc(N(C)C)cc3)nc2N1 (stereo not drawn),inactive: 79%
14,CCN(C(=O)c1cc(S(=O)(=O)N2CCc3ccccc32)cn1C)c1cccc(C)c1,inactive: 94%
15,CNS(=O)(=O)c1cn(CC(=O)Nc2ccc(C)c(N(C)C)c2)cc1S(=O)(=O)NC,inactive: 82%
16,CC(=O)Nc1ccc(NC2OC(=O)c3ccccc32)cc1 (stereo not drawn),inactive: 113%
17,Cc1ccc(-c2nn(CC(=O)NC3CCCCC3)c3c2cnc2ccccc23)cc1,inactive: 75%
18,Cc1ccc2c(=O)c(C(=O)c3ccc(F)cc3)cn(CC(=O)NCc3ccccc3Cl)c2n1,inactive: 97%
19,Cc1ccc(Cl)cc1N1CCN(C(=O)c2cccn2-c2nnc(N3CCCC3)s2)CC1,inactive: 78%
20,CCn1ccc2cc(S(=O)(=O)N3CCCN(C(=O)Nc4ccc(C)c(F)c4)CC3)ccc21,inactive: 89%
21,CCCc1ccc(OCC(=O)Nc2sc3c(c2C(=O)OC)CCCCC3)cc1,inactive: 43%
22,CC(C)CC(=O)NCC1(N(C)C)CCCCC1,inactive: 87%

row,Compound,survival
1,CCCCOc1ccccc1C(=O)Nc1nonc1-c1ccccc1,inactive: 108%
2,Cc1cccc(N(C)c2nc3ccc(C)cc3n3cnnc23)c1,inactive: 76%
3,Cc1ccc(CNC(=O)CCCN2C(=O)c3cccnc3Oc3ccc(Cl)cc32)cc1,inactive: 125%
4,Cc1nc(-c2ccccc2)sc1CCNC(=O)C(=O)Nc1ccc2c(c1)OCCO2,inactive: 63%
5,CCOc1ccc(NC(=O)c2cc3c(s2)-c2ccccc2OC3)cc1,inactive: 100%
6,OC(C#CCN1CCCC1)(c1ccccc1)C1CCCC1 (stereo not drawn),inactive: 104%
7,Cc1cccc(NC(=O)C(Cc2ccccc2)n2cccc2)c1C (stereo not drawn),inactive: 84%
8,Nc1nc2ccc(C(=O)O)cc2s1,inactive: 102%
9,COc1cc(OC)c(NC(=O)N2CCc3c(sc4c3CCCC4)C2c2ccccc2)cc1Cl (stereo not drawn),inactive: 69%
10,CC(C(=O)N1CCCC1)N1CCN(c2ccc(F)cc2)CC1 (stereo not drawn),inactive: 95%
11,O=C(Nc1nnc(S(=O)(=O)N2CCCCCC2)s1)c1ccccc1Cl,inactive: 41%
12,COc1ccccc1Cc1nc2ccccc2nc1SCC(=O)N1CCc2ccccc21,inactive: 49%
13,COc1ccccc1N1CCN(c2ccc(-c3nc(-c4ccccc4C)no3)cc2[N+](=O)[O-])CC1,inactive: 84%
14,Cc1cccc(-c2nc(CSCC(=O)N3CCN(c4ccccc4)CC3)c(C)o2)c1,active: 18%
15,FC(F)(F)c1cccc(-c2nnn3c2nc(NC2CCCCC2)c2ccccc23)c1,inactive: 28%
16,Cc1cccc(N2CCN(C(=O)Cn3cnc4sc(C)c(S(=O)(=O)N5CCN(c6ncccn6)CC5)c4c3=O)CC2C)c1 (stereo not drawn),inactive: 71%
17,CCC(C)NC(=O)C1CCN(C(=O)c2ccc(-n3ccc4ccccc43)s2)CC1 (stereo not drawn),inactive: 55%
18,COc1ccccc1CCNC(=O)Cc1c(C)c2c(cc(C)c3c(C)c(C)oc32)oc1=O,inactive: 85%
19,CCOC(=O)c1ccc(NC(=O)CSc2nccn2-c2ccc(OCC)cc2)cc1,inactive: 81%
20,COc1ccc(NC(=O)C(C)n2nnc3sc(-c4ccccc4)cc3c2=O)cc1Cl (stereo not drawn),inactive: 75%
21,COc1cc([N+](=O)[O-])ccc1NC(=O)N1CCN(c2cc(-c3noc(C)n3)ccc2C)CC1,inactive: 78%
22,CCOc1ccccc1CNC(=O)C1CCN(S(=O)(=O)c2c(C)noc2/C=C/c2ccc(C)cc2)CC1,inactive: 120%

row,Compound,survival
1,COc1cccc(NC(=O)C(=O)NCCc2csc(-c3ccc(C(F)(F)F)cc3)n2)c1,inactive: 87%
2,CCOc1ccc(CCNC(=O)c2cc(=O)[nH]c3ccc(S(=O)(=O)N4CCCCC4)cc23)cc1OCC,inactive: 89%
3,CCOC(=O)c1cccc(NC(=O)N2CCC(CN3CCc4ccccc4C3)CC2)c1,inactive: 71%
4,Cc1ccccc1OCC(=O)Nc1ccc(OCc2cc(=O)n3ccsc3n2)cc1,inactive: 92%
5,O=C(Cc1ccc(F)cc1)NCc1nc2cccnc2n1Cc1ccc(F)cc1,inactive: 87%
6,FC(F)(F)c1cccc(N2CCN(Cc3nnc(-c4ccc5c(c4)OCO5)o3)CC2)c1,inactive: 65%
7,Cc1ccccc1C(=O)Nc1ccc2nc(Nc3cccc(C(F)(F)F)c3)cc(C)c2c1,inactive: 45%
8,CCOc1ccc(S(=O)(=O)c2c[nH]c3ccccc3c2=O)cc1,inactive: 80%
9,COc1ccc(CCNC(=O)C2CCN(c3ncnc4c3nc3n4CCCCC3)CC2)c(OC)c1,inactive: 99%
10,CCOC(=O)c1cccc(NC(=O)N2CC(CC)Sc3ccccc32)c1 (stereo not drawn),inactive: 84%
11,COc1cccc(-c2nc(SCC(=O)NCC3CCCO3)c(-c3ccc(F)cc3)[nH]2)c1 (stereo not drawn),inactive: 106%
12,NS(=O)(=O)c1ccc(CCNC(=O)c2ccc3nc(Cc4ccccc4)oc3c2)cc1,inactive: 81%
13,CC(C)(C)C1CCc2c(sc(NC(=O)CCC(=O)O)c2C(=O)Nc2ccccc2C(F)(F)F)C1 (stereo not drawn),active: 1%
14,CCCc1cc(=O)oc2cc(C)c3c(-c4cccc(OC)c4)coc3c12,inactive: 74%
15,CC1CCCN(Cc2nc3c(c(=O)n(C)c(=O)n3C)n2Cc2ccc(Cl)cc2Cl)C1 (stereo not drawn),inactive: 87%
16,COc1cccc(CNC(=O)c2ccc(-c3nc(CS(=O)(=O)c4ccccc4)c(C)o3)cc2)c1,inactive: 64%
17,COC(=O)c1ccc2c(=O)n(CCCCCC(=O)N3CCN(c4cc(Cl)ccc4C)CC3)c(=O)[nH]c2c1,inactive: 152%
18,NC(=O)C1CCN(Cc2nc3ccccc3c(=O)[nH]2)CC1,inactive: 108%
19,Cc1cc(C)cc(-n2nnc(-c3nsc(NC(=O)c4ccccc4Cl)n3)c2C)c1,inactive: 49%
20,CCc1ccc(NC(=O)Cn2ncc3c(C)n(Cc4cccc(Cl)c4)c(C)c3c2=O)cc1,inactive: 86%
21,Cc1cc(C(F)(F)F)nc(SCC(=O)Nc2c(C)n(C)n(-c3ccccc3)c2=O)n1,inactive: 102%
22,CN(C)CCNC(=O)CN1C(=O)CCn2nc(-c3cn(C)c4ccccc34)cc21,inactive: 72%

row,Compound,survival
1,O=C(Nc1ccc(C(F)(F)F)cc1)C1CCCN(S(=O)(=O)c2cccc3cccnc23)C1 (stereo not drawn),inactive: 87%
2,CC(=O)Nc1ccc(S(=O)(=O)NCc2ccc(C(=O)NCc3ccc(Cl)cc3)cc2)cc1,inactive: 86%
3,COc1ccc(CCNC(=O)c2cnc3sc(N4CCC(C)CC4)nn3c2=O)cc1OC,inactive: 83%
4,O=C(Nc1cccc(C(=O)N2CCN(c3ccccc3F)CC2)c1)c1nsc2ccccc12,inactive: 67%
5,COc1ccccc1Nc1c2c(nc3ccc(NC(=O)c4cccc(OC)c4OC)cc13)CCCC2,inactive: 43%
6,COC(=O)c1cc2sccc2n1Cc1nc(-c2cccc(Br)c2)oc1C,inactive: 79%
7,CCN(c1ccc(OC)cc1)S(=O)(=O)c1nnc(NC(=O)c2ccccc2C)s1,inactive: 56%
8,CCC1CCCCN1C(=O)CSc1n[nH]c(-c2ccccc2Cl)n1 (stereo not drawn),inactive: 73%
9,CCOc1ccc(NC(=O)Cn2c(=O)n(CC3CCCO3)c(=O)c3ccccc32)cc1 (stereo not drawn),inactive: 96%
10,CCc1ccc(-n2nc(C)c3c(C)cc(=O)n(CC(=O)NCc4ccc(C)cc4)c32)cc1,inactive: 83%
11,CCc1ccc(NC(=O)CSc2nc(C)cc(COC)c2C#N)cc1,inactive: 75%
12,CCCCCCc1cc2cc(-c3nnc(-c4ccc(C)cc4)o3)c(=O)oc2cc1O,inactive: 149%
13,CCc1nc2ccccc2c(NC(=O)CN(CC)CC)c1C,inactive: 122%
14,CC(C)CCNc1nc2c(S(=O)(=O)c3ccc(Br)cc3)nnn2c2ccsc12,inactive: 118%
15,O=C(NCc1cccnc1)C(=O)NCC(c1cccnc1)N1CCN(c2ccccc2)CC1 (stereo not drawn),inactive: 90%
16,CCc1cc2c(cc3c(=O)n(CC(=O)N4CCN(c5cc(Cl)ccc5C)CC4)nc(CC)n32)s1,inactive: 85%
17,O=C(NCc1ccccc1)C1CCN(C(=O)c2cnn(-c3ccccc3)c2-n2cccc2)CC1,inactive: 134%
18,C=Cc1ccc(Cn2c(=O)n(-c3ccc(C)cc3)c(=O)c3c2c2cc(OC)ccc2n3C)cc1,inactive: 85%
19,COc1ccc2cc(C(=O)NCc3ccc4c(c3)CCN4C(=O)c3ccc(C)cc3)[nH]c2c1,inactive: 84%
20,CCOc1ccc2nc(N3CCCC(C(=O)NCc4ccccc4Cl)C3)sc2c1 (stereo not drawn),inactive: 67%
21,CC(=O)Nc1nnc(SCc2cc(=O)c3cccc(C)c3[nH]2)s1,inactive: 90%
22,CC1=C(C(=O)Nc2ccc(C)cc2C)C(c2cccn2C)n2ncnc2N1 (stereo not drawn),inactive: 63%
